In the supplement of paper PMC8728848:
This is one part of the list.

How the values were obtained:
Assay in all cases: glycan array binding signal (z-score within array); higher = stronger binding
Conditions in all cases: glycan notation: IUPAC condensed, linker removed
[1] = biological target: GalNAc(a1-3)GalNAc(b1-3)Gal(a1-4)Gal(b1-4)GlcNAc
Procedure, shortened: (§1)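 Columns mapping to the same glycan were averaged after glycan names were converted to IUPAC-condensed notation. The data come from 3228 arrays in the Consortium for Functional Glycomics database, limited to those with an available protein sequence. Binding is reported as a within-array Z-score averaged across arrays of one protein sequence and across linkers.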

[2] = biological target: GalNAc(b1-3)Gal
Procedure, shortened: as §1

[3] = biological target: GalNAc(b1-3)Gal(a1-4)Gal(b1-4)GlcNAc
Procedure, shortened: as §1

[4] = biological target: GalNAc(b1-3)Gal(a1-4)Gal(b1-4)GlcNAc(b1-3)Gal(b1-4)Glc
Procedure, shortened: as §1

[5] = biological target: GalNAc(b1-3)Gal(a1-6)Gal(b1-4)Glc
Procedure, shortened: as §1

[6] = biological target: GalNAc(b1-3)GalNAc
Procedure, shortened: as §1

[7] = biological target: GalNAc(b1-3)GlcNAc
Procedure, shortened: as §1

[8] = biological target: GalNAc(b1-4)Gal(b1-4)Glc
Procedure, shortened: as §1

[9] = biological target: GalNAc(b1-4)GlcNAc
Procedure, shortened: as §1

[10] = biological target: GalNAc(b1-4)GlcNAc(b1-2)Man
Procedure, shortened: as §1

[11] = biological target: GalNAc(b1-4)GlcNAc(b1-2)Man(a1-3)[GalNAc(b1-4)GlcNAc(b1-2)Man(a1-6)]Man(b1-4)GlcNAc(b1-4)GlcNAc
Procedure, shortened: as §1

[12] = biological target: GalNAc(b1-4)GlcNAc(b1-3)GalNAc(b1-4)GlcNAc
Procedure, shortened: as §1

[13] = biological target: GalNAc(b1-4)GlcNAc6S
Procedure, shortened: as §1

[14] = biological target: GalNAc(b1-6)GalNAc
Procedure, shortened: as §1

[15] = biological target: GalNAc3S(b1-4)GlcNAc
Procedure, shortened: as §1

[16] = biological target: GalNAc3S(b1-4)GlcNAc3S
Procedure, shortened: as §1

[17] = biological target: GalNAc3S(b1-4)[Fuc(a1-3)]GlcNAc
Procedure, shortened: as §1

[18] = biological target: GalNAc4S6S(b1-4)GlcNAc
Procedure, shortened: as §1

[19] = biological target: GalNAc6S(b1-4)GlcNAc
Procedure, shortened: as §1

[20] = biological target: Glc(a1-4)Glc
Procedure, shortened: as §1

[21] = biological target: Glc(a1-4)Glc(a1-4)Glc(a1-4)Glc
Procedure, shortened: as §1

[22] = biological target: Glc(a1-6)Glc(a1-6)Glc
Procedure, shortened: as §1

[23] = biological target: Glc(a1-6)Glc(a1-6)Glc(a1-6)Glc
Procedure, shortened: as §1

[24] = biological target: Glc(b1-4)Glc
Procedure, shortened: as §1

[25] = biological target: Glc(b1-6)Glc
Procedure, shortened: as §1

[26] = biological target: GlcA(b1-3)Gal
Procedure, shortened: as §1

[27] = biological target: GlcA(b1-3)GlcNAc
Procedure, shortened: as §1

[28] = biological target: GlcA(b1-6)Gal
Procedure, shortened: as §1

[29] = biological target: GlcA3S(b1-3)Gal(b1-4)GlcNAc(b1-2)Man
Procedure, shortened: as §1

[30] = biological target: GlcA3S(b1-3)Gal(b1-4)GlcNAc(b1-3)Gal(b1-4)Glc
Procedure, shortened: as §1

[31] = biological target: GlcNAc(a1-3)Gal(b1-4)GlcNAc
Procedure, shortened: as §1

[32] = biological target: GlcNAc(a1-4)Gal(b1-3)GlcNAc
Procedure, shortened: as §1

[33] = biological target: GlcNAc(a1-4)Gal(b1-4)GalNAc
Procedure, shortened: as §1

[34] = biological target: GlcNAc(a1-4)Gal(b1-4)GlcNAc
Procedure, shortened: as §1

[35] = biological target: GlcNAc(a1-4)Gal(b1-4)GlcNAc(b1-3)Gal(b1-4)Glc
Procedure, shortened: as §1

[36] = biological target: GlcNAc(a1-4)Gal(b1-4)GlcNAc(b1-3)Gal(b1-4)GlcNAc
Procedure, shortened: as §1

[37] = biological target: GlcNAc(a1-4)Gal(b1-4)GlcNAc(b1-3)Gal(b1-4)GlcNAc(b1-3)Gal(b1-4)GlcNAc
Procedure, shortened: as §1

[38] = biological target: GlcNAc(a1-4)Gal(b1-4)GlcNAc(b1-3)Gal(b1-4)[Fuc(a1-3)]GlcNAc(b1-3)Gal(b1-4)[Fuc(a1-3)]GlcNAc
Procedure, shortened: as §1

B1: Als3-N (Candida albicans) (protein)
chain: KTITGVFNSFNSLTWSNAATYNYKGPGTPTWNAVLGWSLDGTSASPGDTFTLNMPCVFKFTTSQTSVDLTAHGVKYATCQFQAGEEFMTFSTLTCTVSNTLTPSIKALGTVTLPLAFNVGGTGSSVDLEDSKCFTAGTNTVTFNDGGKKISINVDFERSNVDPKGYLTDSRVIPSLNKVSTLFVAPQCANGYTSGTMGFANTYGDVQIDCSNIHVGITKGLNDWNYPVSSESFSYTKTCSSNGIFITYKNVPAGYRPFVDAYISATDVNSYTLSYANEYTCAGGYWQRAPFTLRWTGYRNSDAGSNGIVIVATTRTVTDSTTAVTTLPFDPNRDKTKTIEILKPIPTTTITTSYVGVTTSYLTKTAPIGETATVIVDIPYHTTTTVTSKWTGTITSTTTHTNPTDSIDTVIVQVP
- glycan array binding signal (z-score) [1]: -0.242
- glycan array binding signal (z-score) [2]: -0.183
- glycan array binding signal (z-score) [3]: -0.167
- glycan array binding signal (z-score) [4]: -0.222
- glycan array binding signal (z-score) [5]: -0.246
- glycan array binding signal (z-score) [6]: 0.013
- glycan array binding signal (z-score) [7]: -0.135
- glycan array binding signal (z-score) [8]: -0.074
- glycan array binding signal (z-score) [9]: 0.163
- glycan array binding signal (z-score) [10]: 0.231
- glycan array binding signal (z-score) [11]: -0.214
- glycan array binding signal (z-score) [12]: 0.102
- glycan array binding signal (z-score) [13]: -0.145
- glycan array binding signal (z-score) [14]: -0.232
- glycan array binding signal (z-score) [15]: -0.328
- glycan array binding signal (z-score) [16]: 0.535
- glycan array binding signal (z-score) [17]: -0.054
- glycan array binding signal (z-score) [18]: 0.111
- glycan array binding signal (z-score) [19]: 0.002
- glycan array binding signal (z-score) [20]: -0.188
- glycan array binding signal (z-score) [21]: 0.082
- glycan array binding signal (z-score) [22]: -0.244
- glycan array binding signal (z-score) [23]: 0.126
- glycan array binding signal (z-score) [24]: -0.181
- glycan array binding signal (z-score) [25]: -0.125
- glycan array binding signal (z-score) [26]: -0.356
- glycan array binding signal (z-score) [27]: -0.165
- glycan array binding signal (z-score) [28]: -0.174
- glycan array binding signal (z-score) [29]: -0.101
- glycan array binding signal (z-score) [30]: 0.051
- glycan array binding signal (z-score) [31]: -0.341
- glycan array binding signal (z-score) [32]: -0.207
- glycan array binding signal (z-score) [33]: -0.081
- glycan array binding signal (z-score) [34]: 0.287
- glycan array binding signal (z-score) [35]: -0.033
- glycan array binding signal (z-score) [36]: -0.232
- glycan array binding signal (z-score) [37]: -0.263
- glycan array binding signal (z-score) [38]: 1.31
